Laboratory results published in US20260042854A1, “ANTI-GLP-1R ANTIBODIES AND USES THEREOF” (SCIWIND BIOSCIENCES USA CO., LTD, priority 2022, published 2026).
Entries after “also recorded” stand apart in the source; their conditions may differ.

Biological target: T1, hGLP-1R on the cell membrane (HEK293 cells overexpressing hGLP-1R) (Homo sapiens, UniProt P43220)
T1 construct: antibody to the full-length hGLP-1R on the cell membrane; host or cells: HEK293
Assay: Flow cytometry binding to hGLP-1R on HEK293 cell membrane
Conditions: flow cytometry (FACS)
Protocol: HEK293 cells overexpressing hGLP-1R (GenScript Biotech Corporation) were washed with FACS buffer, then added with 50 μL antibody (P16288, P16289, or IgG1 (Sanyou Biopharmaceuticals (Shanghai) Co., Ltd.) as negative control) of 137.0, 45.7, 15.2, 5.1, 1.69, 0.56, 0.19 or 0.018 nM and incubated at 4° C. for 60 minutes. After centrifugation and washing, the cells were added with PE-labeled anti-human IgG Fc (Abcam, ab98596), and incubated at 4° C. for 30 minutes. After centrifugation and washing, the cells were re-suspended into a FACS buffer. The mean fluorescence intensities (MFI) were measured with flow cytometry. The data were analyzed by four-parameter curve fitting with GraphPad Prism 9, and EC50 was calculated.

T1 sequence (P43220 24-463): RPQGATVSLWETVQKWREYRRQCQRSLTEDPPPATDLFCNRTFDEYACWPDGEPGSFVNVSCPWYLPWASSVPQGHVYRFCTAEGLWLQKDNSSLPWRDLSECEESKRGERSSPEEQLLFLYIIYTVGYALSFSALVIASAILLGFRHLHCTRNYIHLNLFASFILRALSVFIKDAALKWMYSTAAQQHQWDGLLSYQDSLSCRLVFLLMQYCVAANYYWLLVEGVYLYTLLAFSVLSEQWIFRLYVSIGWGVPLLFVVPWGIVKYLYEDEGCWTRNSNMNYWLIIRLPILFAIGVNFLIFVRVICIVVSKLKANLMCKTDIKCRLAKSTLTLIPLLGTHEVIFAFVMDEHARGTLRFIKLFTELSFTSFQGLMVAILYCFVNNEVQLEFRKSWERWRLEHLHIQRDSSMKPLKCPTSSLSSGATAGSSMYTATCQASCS

B1: P16288: Fully human anti-GLP-1R IgG4 (S228P) antibody; heavy chain SEQ ID NO: 9, light chain SEQ ID NO: 10 (antibody)
heavy: QVQLVQSGAEMKKPGASVKVSCKTSGYRFSTYVISWVRQTPGQGLEWMGWISPYTGDIDYAQKFQGRVTITADESTSTAYMELSRLRSDDTAVYYCARERDGYNFPGMDVWGQGTTVTVSSASTKGPSVFPLAPCSRSTSESTAALGCLVKDYFPEPVTVSWNSGALTSGVHTFPAVLQSSGLYSLSSVVTVPSSSLGTKTYTCNVDHKPSNTKVDKRV[human IgG4 Fc with S228P (EU numbers) not listed]
light: DIQLTQSPSFLSASVGDRVTITCRASQGISSYLAWYQQKPGRAPKLLIYSASTLQRGVPSRFSGSGSGTDFTLTISSLQPEDYATYYCQQADSFPPSFGPGTKVDIKRTVAAPSVFIFPPSDEQLKSGTASVVCLLNNFYPREAKVQWKVDNALQSGNSQESVTEQDSKDSTYSLSSTLTLSKADYEKHKVYACEVTHQGLSSPVTKSFNRGEC
binding to hGLP-1R on the cell membrane (in words): bound strongly; also recorded: binds strongly
